Screen size: about 320,000 compounds; about 7,600 (2.4%) were called active. The inconclusive results got no clear call from the source; some entries with a clear call stand among them for comparison. Calls come from the whole dose curve; as a rule, active = well fitted activation curve with a large enough effect; inconclusive = small, poorly fitted or top-dose-only effect; inactive = no such curve, though single readings can be large or run the other way. Potencies of inconclusive entries are left out as doubtful fits.
assay: qHTS Assay for NPC1 Promoter Activators; conditions: Huh7 NPC1 promoter luciferase reporter, 24 h; series mostly up to 9.22 µM; note: nearly all actives have a fitted effect of over 60% in size;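 for activation: reporter is driven by a mutant NPC1 promoter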
Summary of the method: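 NPC1 promoter–luciferase Huh7 cells; 24 h compound; luminescence.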
Potency is the fitted concentration of half-maximal effect; tags give direction and shape of the fitted curve.

Row | SMILES | Potency
1 | CCOc1cc(-c2nc3ccccc3s2)ccc1O | inconclusive [activator, single point]
2 | Clc1ccc2nc(CSc3ccccc3)cn2c1 | active: 0.501 µM
3 | COC(=O)c1sc(NC(=O)c2ccc(C)o2)nc1C | inconclusive [activator, single point]
4 | Cc1nn(C(C)C(=O)NC2CCC(C)CC2)c(=O)c2nn(-c3ccccc3)c(C)c12 (stereo not drawn) | inconclusive [activator, single point]
5 | Cn1cccc1-c1nc2ccc(NC(=O)c3ccccc3)cc2[nH]1 | inactive
6 | O=C(NC1CCCC1)c1cc(-c2ccc(Cl)c(Cl)c2)on1 | inconclusive [activator, partial curve]
7 | Cc1cc2ncn(CCOc3ccccc3)c2cc1C | inconclusive [activator, partial curve]
8 | Cc1ccccc1CN(C)C(C)C(=O)Nc1ccccc1F (stereo not drawn) | inactive
9 | O=C1NC(=S)N/C1=C\C=C\c1ccccc1 | inactive
10 | Cc1ccc(N2CC(C(=O)Nc3ccc(S(=O)(=O)Nc4ncccn4)cc3)CC2=O)cc1C (stereo not drawn) | inactive
11 | CC1(C)Cc2c(sc(NC(=O)C(=O)N3CCCC3)c2C(=O)O)CO1 | inactive
12 | CC(=O)c1ccc(OC(=O)CCc2ccccc2)cc1 | inactive
13 | COc1ccc2nc(NC(=O)CSc3nnc(N)s3)sc2c1 | inconclusive [activator, partial curve]
14 | COc1ccc(NC(=O)c2cccc(OS(=O)(=O)N(C)C)c2)cc1 | active: 1.58 µM
15 | CCCSc1nnc(-c2c[nH]c3ccccc23)n1C | inactive
16 | Cn1c(SCc2ccc(Cl)cc2)nnc1-c1ccc2nonc2c1 | inactive
17 | Cc1ccc(OCc2cc(C(=O)NCCn3cccn3)no2)cc1C | inactive
18 | Cc1cccc(C(=O)Nc2nnc(SCC(=O)NC3CC3)s2)c1 | inconclusive [activator, partial curve]
19 | CCN(C(=O)c1cc2ccccc2oc1=O)c1ccccc1 | inconclusive [activator, partial curve]
20 | Cc1ccc(-n2ncc3c(NCCCOC(C)C)ncnc32)c(C)c1 | inactive
21 | CSCCC(NS(=O)(=O)c1ccccc1F)C(=O)Nc1ccncc1 (stereo not drawn) | inactive
22 | O=C(Nc1ccccc1N1CCCC1)c1cc2ccccc2o1 | inconclusive [activator, single point]
23 | O=C(c1ccc(Cl)cc1)c1cnc2ccccn12 | active: 3.16 µM
24 | Cc1cccc(N(CC(=O)O)CC(=O)O)c1 | inactive
25 | CSc1ccc(/C=N/NC(=O)c2cccs2)cc1 | active: 2.24 µM
26 | CCOC(=O)C1CCCN(c2ncnc3c2cnn3-c2ccc(Cl)cc2)C1 (stereo not drawn) | inconclusive [activator, partial curve]

Row | SMILES | Potency
27 | CCOc1ccc(C(=O)CN2CCN(S(=O)(=O)c3ccc(F)cc3)CC2)cc1 | inactive
28 | COc1ccccc1C(=O)NC(=O)COC(=O)c1nc2nc(C)cc(C)n2n1 | inactive
29 | Cc1cc(C)c(C#N)c(SCC(=O)Nc2ccccc2)n1 | inconclusive [activator, single point]
30 | O=C(Nc1ccc(-c2cn3ccsc3n2)cc1)C1COc2ccccc2O1 (stereo not drawn) | inconclusive [activator, partial curve]
31 | Fc1ccc(N/N=C/c2cccnc2)c(F)c1 | inconclusive [activator, single point]
32 | Cc1[nH]c2ccccc2c1C(=O)C(=O)Nc1ccc2c(c1)OCCO2 | inconclusive [activator, single point]
33 | CNS(=O)(=O)c1c(C)cc(C)c(N(C)S(=O)(=O)c2ccccc2)c1C | inactive
34 | O=C(Nc1ccc2c(c1)OCCO2)c1ccco1 | active: 2 µM
35 | CCCCCn1c(Sc2nc3ccccc3s2)nc2c1c(=O)[nH]c(=O)n2C | inactive
36 | Cc1ccc(NC(=O)c2cccc(NC(=O)/C=C/c3ccco3)c2)cc1C | inconclusive [activator, single point]
37 | CN(C)S(=O)(=O)c1ccc(C(=O)OC2CCOC2=O)cc1 (stereo not drawn) | inactive
38 | COc1ccc(C(=O)COC(=O)c2ccccc2O)c(OC)c1 | inconclusive [activator, partial curve]
39 | COC(=O)c1ccc(COc2ccc3c(c2)CCC3)o1 | inconclusive [activator, full curve]
40 | COc1cccc(/C=N/Nc2c(Cl)cncc2Cl)c1O | inconclusive [activator, single point]
41 | O=C(CSc1nnc(NC(=O)c2c(F)cccc2F)s1)Nc1ccc(F)cc1 | inconclusive [activator, partial curve]
42 | COC(=O)c1ccccc1NC(=O)c1ccc(-c2cccc(Cl)c2)o1 | inconclusive [activator, single point]
43 | CNC(=S)N(CCc1c(C)[nH]c2ccc(F)cc12)Cc1cccnc1 | inactive
44 | CCOC(=O)c1cccc(-c2c(-c3ccccc3)ncc3cc(OC)c(OC)cc23)c1 | inconclusive [activator, single point]
45 | O=c1c2c3c(sc2nc2n1CCC2)CCCC3 | inactive
46 | CCOC(=O)c1sc(=NC(=O)/C=C/c2cccs2)n(C)c1C | inconclusive [activator, single point]
47 | O=C(Nc1ccc2c(c1)OCO2)Nc1ccc(Cl)cc1Cl | inconclusive [activator, partial curve]
48 | CN(/N=C/c1cccnc1)c1cnc2ccccc2n1 | inconclusive [activator, single point]
49 | CCCCc1noc2c1/C(=N\O)CC(c1ccccc1)C2 (stereo not drawn) | inconclusive [activator, partial curve]
50 | Cc1cc(C)c2cc3c(N)c(C(=O)N4CCOCC4)sc3nc2c1 | inconclusive [activator, partial curve]
51 | COc1cc(SC#N)ccc1N=Cc1c(C)[nH]n(-c2ccc(Cl)cc2)c1=O | inconclusive [activator, single point]
52 | Cc1ccc(Nc2ncccc2C(N)=O)cc1[N+](=O)[O-] | inconclusive [activator, partial curve]

Row | SMILES | Potency
53 | Cc1cccc(NCc2ccc(N(C)C)cc2)n1 | inconclusive [activator, partial curve]
54 | Cc1ccc(-n2c(C)cc(C(=O)COC(=O)c3ccc[nH]c3=O)c2C)cc1C | inconclusive [activator, partial curve]
55 | Cc1ccc(C(=O)CSc2ccccc2C(=O)O)cc1 | inconclusive [activator, partial curve]
56 | Cc1ccc(NC(=O)Nc2ccccc2)cc1[N+](=O)[O-] | inconclusive [activator, partial curve]
57 | COc1ccc(NC(=O)c2ccc(C)cc2)c(OC)c1 | inconclusive [activator, single point]
58 | O=C(Nc1nnc(-c2ccccc2F)s1)Nc1ccccc1F | inconclusive [activator, partial curve]
59 | N#C/C(=C\c1ccc(N2CCOCC2)o1)c1ccccc1 | inconclusive [activator, single point]
60 | Cc1cc(N2CCOCC2)nc2ccc(NC(=S)N3CCCCC3C)cc12 (stereo not drawn) | inactive
61 | COc1ccc(/C=C/C(=O)C2C(=O)C=C(C)OC2=O)cc1O (stereo not drawn) | inconclusive [activator, single point]
62 | COc1ccccc1S(=O)(=O)Cc1ccc(C(=O)N2CCN(c3ccc(C)cc3)C(C)C2)o1 (stereo not drawn) | inactive
63 | Cc1nc(Nc2ccccc2)sc1C(=O)c1ccccc1 | inconclusive [activator, partial curve]
64 | CCCOc1cccc(C(=O)Nc2ccc(Br)cc2F)c1 | inconclusive [activator, single point]
65 | NS(=O)(=O)c1ccc(NC(=S)NC(=O)/C=C/c2cccs2)cc1 | inactive
66 | COc1ccc(CCNC(=O)CCn2c(=O)c3cccn3c3ccc(F)cc32)c(OC)c1OC | inactive
67 | CC(C)(C)c1ccc(C(=O)NC(=S)N2CCOCC2)cc1 | active: 2.24 µM
68 | CNc1nc(N)c(C(=O)Nc2cc(C)on2)s1 | inconclusive [activator, partial curve]
69 | CC(C)(C)OC(=O)N[C@@H](Cc1ccccc1)C(=O)N[C@@H](CO)[C@H](O)[C@@H]1C[C@@H]1C(=O)NC1CC1 | inactive
70 | Cc1ccc(/C=C2\OC(=O)c3ccccc32)cc1 | inactive
71 | CCOC(=O)c1c(C)[nH]c(N=Nc2ccccc2)c1C | inconclusive [activator, partial curve]
72 | CCc1cc(CNC(=O)c2cc(COc3ccc(C)nc3)on2)on1 | inconclusive [activator, partial curve]
73 | Cc1ncc(/C=C2\C(=O)Nc3ccccc32)[nH]1 | inconclusive [activator, partial curve]
74 | Cc1ccc(OCCCC(=O)N2CCOCC2)c(C)c1 | inconclusive [activator, partial curve]
75 | COc1ccccc1NC(=O)Nc1ccc(N2CCOCC2)cc1 | inconclusive [activator, single point]
76 | O=C(COc1ncnc2ccccc12)c1ccc(Cl)cc1 | inconclusive [activator, partial curve]
77 | Cc1ccc(N/N=C(\C#N)C(=N)N2CCCCCC2)cc1 | active: 0.501 µM
78 | CCc1ccccc1N(CC(=O)NC(C)(C)CC)C(=O)CCC(=O)Nc1nccs1 | inactive

— PubChem BioAssay AID485313 (National Center for Advancing Translational Sciences (NCATS), 2010)
